# Test results published in the supplement of paper PMC12067230.
# Single values of this set are uncertain.
# Assay: amyloid nucleation score relative to library mode (yeast Sup35 reporter selection) (log enrichment difference); higher = more amyloid nucleation; sequences are the first 22 residues of the Bri2 peptide extended by up to 12 random residues
# Conditions: random library (experiment): 1;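 active = nucleation score significantly above 0 at FDR 0.05; inactive = not significantly above 0 or absent from output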
# 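Further: [psi-pin-] Saccharomyces cerevisiae expressing SupN fusions, induced by 100 µM Cu2SO4, selected 7 d at 30 °C without adenine and uracil, scored by deep sequencing of output versus input.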
row,Sequence,amyloid nucleation score
1,EASNCFAIRHFENKFAVETLICGTKVLECRGVLV,inactive
2,EASNCFAIRHFENKFAVETLICGTLR,inactive
3,EASNCFAIRHFENKFAVETLICGTLV,inactive
4,EASNCFAIRHFENKFAVETLICGTQF,inactive
5,EASNCFAIRHFENKFAVETLICGTQGALAGSVVL,1.1
6,EASNCFAIRHFENKFAVETLICGTRPTLVFFAPT,inactive
7,EASNCFAIRHFENKFAVETLICGTSCSGM,inactive
8,EASNCFAIRHFENKFAVETLICGTSETRHGGPRG,inactive
9,EASNCFAIRHFENKFAVETLICGTSLGSWSSGMG,inactive
10,EASNCFAIRHFENKFAVETLICGTSRQGSSGHCV,inactive
11,EASNCFAIRHFENKFAVETLICGTSWSRCATYST,inactive
12,EASNCFAIRHFENKFAVETLICGTVCLKCSVYGL,inactive
13,EASNCFAIRHFENKFAVETLICGTVDPVIYRRSC,inactive
14,EASNCFAIRHFENKFAVETLICGTVGAAKGNTLG,inactive
15,EASNCFAIRHFENKFAVETLICGTVTVKV,inactive
16,EASNCFAIRHFENKFAVETLICGV,-0.693
17,EASNCFAIRHFENKFAVETLICGVAQIVRPIWFA,inactive
18,EASNCFAIRHFENKFAVETLICGVASDVAVANWA,inactive
19,EASNCFAIRHFENKFAVETLICGVCIMWMPKQME,8.13

row,Sequence,amyloid nucleation score
1,EASNCFAIRHFENKFAVETLICGVDATPLYSSST,-0.418
2,EASNCFAIRHFENKFAVETLICGVDISMA,inactive
3,EASNCFAIRHFENKFAVETLICGVDL,inactive
4,EASNCFAIRHFENKFAVETLICGVEFQYSVARWS,inactive
5,EASNCFAIRHFENKFAVETLICGVFGLNTYSLGS,6.94
6,EASNCFAIRHFENKFAVETLICGVFVAMKWSYRC,inactive
7,EASNCFAIRHFENKFAVETLICGVFVMDCRGCSW,8.26
8,EASNCFAIRHFENKFAVETLICGVGCGNDGRWRE,3.67
9,EASNCFAIRHFENKFAVETLICGVGE,inactive
10,EASNCFAIRHFENKFAVETLICGVGHQRVELAMR,0.42
11,EASNCFAIRHFENKFAVETLICGVGLHRETWLTE,inactive
12,EASNCFAIRHFENKFAVETLICGVGRSVLRMGEC,inactive
13,EASNCFAIRHFENKFAVETLICGVGSDIV,inactive
14,EASNCFAIRHFENKFAVETLICGVGSGRFSDAMK,inactive
15,EASNCFAIRHFENKFAVETLICGVGSRCRLPSWR,inactive
16,EASNCFAIRHFENKFAVETLICGVHISVWVIMHL,inactive
17,EASNCFAIRHFENKFAVETLICGVLFSSFRSSGV,inactive
18,EASNCFAIRHFENKFAVETLICGVLGDIQSSM,5.66
19,EASNCFAIRHFENKFAVETLICGVLI,4.33

# Same assay, conditions: random library (experiment): 2
row,Sequence,amyloid nucleation score
1,EASNCFAIRHFENKFAVETLICGTLCYSRIGNCV,5.11
2,EASNCFAIRHFENKFAVETLICGTMMKYVLSMPR,3.81
3,EASNCFAIRHFENKFAVETLICGTNNYVRSLA,0.598
4,EASNCFAIRHFENKFAVETLICGTNVSASRYLMM,0.741
5,EASNCFAIRHFENKFAVETLICGTRILSSLHQPW,3.16
